The other results are listed elsewhere or left out. At the low end of the ranking the order means little.

The assay addresses T1, GST-Rok (full length) (UniProt O34857).
T1 sequence: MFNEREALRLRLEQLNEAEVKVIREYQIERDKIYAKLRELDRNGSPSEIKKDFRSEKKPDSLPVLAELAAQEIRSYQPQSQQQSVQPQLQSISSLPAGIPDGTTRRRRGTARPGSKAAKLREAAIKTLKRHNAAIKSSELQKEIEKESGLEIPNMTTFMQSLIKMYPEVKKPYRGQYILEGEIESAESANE
Briefly: protein binding microarray.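 Also: rank score from −0.5 (least bound) to 0.5 (best bound).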 The settings on record: Rok is a gene silencer of Bacillus subtilis; high values mean tight binding; most listed sequences are background and not binding sites; double strand, one strand shown.
As to GGACTAAC, the binding signal is 0.00668 E-score.

In the case of GCCCTGAA, the binding signal was -0.222 E-score. Under CCTTAAGC stands -0.334 E-score; under GCCAATCC, -0.218 E-score; under AAAATAAA, 0.199 E-score.

For the sequence GCATTGCA, the binding signal came to 0.0318 E-score.

Consider CGTTATAC, for which the binding signal stood at 0.169 E-score.

As to GTTGCGAA, the binding signal is -0.0232 E-score.

On to ACCGCAAT, for which the binding signal was 0.0964 E-score. In turn, CAAGCTTA had a binding signal of 0.0259 E-score. For GATGGAAC, the binding signal is -0.124 E-score. Under CGTGGGCC stands -0.305 E-score; under AAACTACT, 0.484 E-score; under AGCGTGAT, 0.0986 E-score.

AGAGGTTA: the binding signal was -0.129 E-score.

CTAGCGCA gave a binding signal of 0.0524 E-score. Under AACGATCG stands -0.0101 E-score; under AGCTGCCC, -0.203 E-score. To CATATATC belongs 0.25 E-score; to AGTTTCCG, 0.198 E-score; to ACATTATG, 0.228 E-score. For AAATTATT, the binding signal was 0.296 E-score. The sequence CAAATATG gave a binding signal of 0.194 E-score. Under CTCAACTA stands 0.13 E-score; under TAAGTACA, 0.227 E-score; under CAGCTGAA, -0.0939 E-score.

As to TTAAACAA, the binding signal was -0.0973 E-score. To CGTAAGTC belongs -0.0903 E-score. Under CCAGGAAG stands -0.0422 E-score; under GAAACCGC, -0.174 E-score. For the sequence AGCGACGC, the binding signal is -0.14 E-score.

With CCTATCCC, the binding signal is -0.299 E-score. To TAGCCATA belongs 0.145 E-score. On to AAGAAAAC, for which the binding signal is -0.217 E-score. Under ATAGTTGC stands 0.306 E-score; under AGTACGCC, -0.149 E-score. Turning to CTACGCTA, the binding signal was 0.27 E-score. To GTACGGCA belongs -0.048 E-score; to CTTGATAC, 0.0975 E-score. Under AACTACAT stands 0.419 E-score; under CGTTAACA, -0.0142 E-score; under AGGTGGGC, -0.369 E-score. Under GCGGTAGC stands 0.0476 E-score. ATCAGATA yielded a binding signal of 0.0946 E-score. Under CCGGAAAG stands -0.182 E-score; under ACGTTCAA, -0.0397 E-score.

In turn, AATCATCG returned a binding signal of 0.01 E-score. To CCGAGAGG belongs -0.343 E-score; to CTCAGCGC, 0.0572 E-score.

For CTTCGATC, the binding signal is -0.0236 E-score. To ATATGGAA belongs 0.231 E-score; to ATTTGCCG, -0.0552 E-score. Under CAGCACAA stands 0.0381 E-score. Under AATGCAAT stands 0.133 E-score. For AGACTCTC, the binding signal is -0.122 E-score. Under GTTAGCAA stands 0.209 E-score; under ACGCTTGC, -0.1 E-score; under AGGCATTA, 0.169 E-score. Under CATGCGAA stands 0.0273 E-score; under CAAATAGA, 0.108 E-score; under ACGATCAC, -0.178 E-score.

For CCGAGCGA, the binding signal was -0.357 E-score. To GGTATACC belongs 0.102 E-score. As to GCTGAGTA, the binding signal was -0.0132 E-score. To CTGGACCC belongs -0.459 E-score; to GACTGTGA, -0.112 E-score.

Regarding AGAATCCA, the binding signal was -0.0315 E-score. As for ATATATTG, the binding signal was determined as 0.372 E-score. To CTATACGC belongs 0.0736 E-score; to GGATGGAC, -0.287 E-score. To CAGGATGC belongs -0.0958 E-score; to CCATAAGG, -0.156 E-score; to CGCAGGAC, -0.311 E-score.

CCTAATTC: the binding signal stood at 0.0288 E-score. Under AGATATGA stands 0.175 E-score; under AGAAGCTA, 0.0762 E-score; under ATGCCTGG, -0.103 E-score. To AGAACGAC belongs 0.113 E-score. CCGTGGGA: the binding signal was -0.235 E-score. To CATGCTGC belongs -0.00844 E-score. To AAGAATCC belongs 0.0482 E-score; to GGGGTATA, -0.0577 E-score.

GGCGTTAC: the binding signal is -0.208 E-score. GTTGTGCA yielded a binding signal of 0.227 E-score.

As to AGCGCATC, the binding signal came out at 0.00598 E-score.

Regarding ACACCTCC, the binding signal is -0.164 E-score. Under AGCCTCGG stands -0.32 E-score; under ACTTATTG, 0.0643 E-score. Under TGGTAAAA stands 0.354 E-score; under AAGCGAGG, -0.282 E-score. In turn, CATCCAAG returned a binding signal of 0.11 E-score. As to ATGAAACC, the binding signal is -0.201 E-score.

As to GACATCCA, the binding signal was -0.1 E-score.

Sequence ACCACAAT had a binding signal of 0.058 E-score. Under CGAAAAAC stands -0.193 E-score. Under AAGCTAAT stands 0.235 E-score; under CATTCTGG, -0.171 E-score; under ATCGGCGA, 0.109 E-score. To TAGGACAA belongs -0.0259 E-score; to GAATCTTA, 0.141 E-score. In turn, ATACGCTA yielded a binding signal of 0.214 E-score.

Sequence ACGACAGT yielded a binding signal of 0.0319 E-score. On to AGTCCGGC, for which the binding signal is -0.234 E-score.

With AATGTCTC, the binding signal came to 0.00163 E-score. To GGTACAGA belongs 0.0996 E-score; to AAGGATTC, -0.0144 E-score; to AATAGAGT, -0.026 E-score. Under CTGGACTC stands -0.256 E-score. Under ATCCACAC stands 0.00217 E-score.
